Test results from patent US12016334B2, “Composition comprising sulphated galactose, and implementations thereof” (priority 2018, dated 2024).

Test system: PR1, PDF1.2 and VSP2 genes
Assay: qPCR of defense marker genes in Arabidopsis after spray
Conditions: Gal-S spray 8 mg/L compared to Gal-S-L1 2 ml/L (Gal-S 28 mg/L)

## O=C[C@H](O)[C@@H](O)[C@@H](OS(=O)(=O)O)[C@H](O)CO [Gal-S, D-galactose-4-O-sulphate]
  relative expression of immune genes PDF1.2 and VSP2: significantly lower
